From PubChem BioAssay AID504832 (National Center for Advancing Translational Sciences (NCATS), 2011)
In all, about 310,000 compounds went through this assay and about 18,000 (5.8%) were called active. This list was built around the results that the source calls inconclusive (neither active nor inactive); the mix of calls is not that of the screen. Calls come from the whole dose curve; as a rule, active = well fitted inhibition curve with a large enough effect; inconclusive = small, poorly fitted or top-dose-only effect, or another doubt; inactive = no such curve, though single readings can be large or run the other way. No potency is given beside an inconclusive call; the fits are too rough.

Assay: Primary qHTS for delayed death inhibitors of the malarial parasite plastid, 48 hour incubation
Settings: P. falciparum luciferase growth in erythrocytes; series mostly up to 28.7 µM
Outline: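 Read-out is firefly luciferase luminescence from an integrated reporter in P. falciparum, so falling signal marks reduced parasite growth. Infected erythrocytes were at 2% hematocrit and 0.1% parasitemia (final) in Albumax-supplemented RPMI 1640.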
Potency is the fitted concentration of half-maximal effect; tags give direction and shape of the fitted curve.

Row | Structure (SMILES) | Potency
1 | C=C(C)CNC(=S)N/N=C(\C)c1ccc(Cl)s1 | active: 11.7 µM
2 | C=C1CCN([C@H](C(=O)NCc2ccc(OC)cc2)C(C)C)S(=O)(=O)c2ccccc21 | inconclusive [inhibitor, full curve, poor fit]
3 | NNC(=S)NCc1ccco1 | inactive
4 | Cc1cc(C(=O)COc2ccccc2C#N)c(C)n1C1CC1 | inconclusive [inhibitor, single point]
5 | CN(CC(=O)Nc1ccc(S(=O)(=O)N2CCOCC2)cc1)Cc1ccc(F)cc1 | inconclusive [inhibitor, single point]
6 | c1ccc2c(c1)CCN(c1ncnc3c1[nH]c1ccccc13)C2 | active: 5.22 µM
7 | CCNC(=O)C(=O)Nc1ccc2c(c1)N(S(=O)(=O)c1cccs1)CCC2 | inconclusive [inhibitor, single point]
8 | CCOc1ccccc1-n1c(O)c(C=NCc2ccc3c(c2)OCO3)c(=O)[nH]c1=O | inconclusive [inhibitor, partial curve, poor fit]
9 | Cc1cc(NC(=S)N(CCN2CCCCC2)Cc2ccco2)ccc1Cl | inconclusive [inhibitor, single point]
10 | CCCCN(CCCC)C(=O)c1cn(CC)c2cc(N3CCN(C)CC3)c(F)cc2c1=O | inconclusive [inhibitor, partial curve, poor fit]
11 | CC12CCC(C(=O)N(NC(=O)c3cccnc3)C1=O)C2(C)C (configuration not stated) | inactive
12 | CCc1cc(=O)oc2cc(C)cc(OC(C)C(=O)NCC(O)c3ccccc3)c12 (configuration not stated) | inconclusive [inhibitor, full curve]
13 | CCOC(=O)c1c(-n2c(C)cc(C=C3C(=O)NC(=S)NC3=O)c2C)sc2c1CCCC2 | active: 11.7 µM
14 | COc1ccc(NS(=O)(=O)c2cc(NC(=O)c3cccc(OCc4c(C)noc4C)c3)ccc2OC)cc1 | active: 9.28 µM
15 | COc1ccc(-c2noc(CN(C)C(=O)CCN3C(=O)[C@H]4CC=CC[C@H]4C3=O)n2)cc1 | inconclusive [inhibitor, partial curve, poor fit]
16 | O=C(CN1CCOCC1)N1CCCc2c1c(=O)oc1ccc(OCc3ccccc3)cc21 | inconclusive [inhibitor, single point]
17 | CCN(CC)S(=O)(=O)c1ccc(-c2cc(C(=O)OC)sc2C(F)(F)F)cc1 | inconclusive [inhibitor, partial curve, poor fit]
18 | O=C(CCS(=O)(=O)c1ccccc1)Nc1ccc(S(=O)(=O)Nc2ncccn2)cc1 | inconclusive [inhibitor, single point]
19 | CCCOC(=O)c1c(-c2ccc(C)cc2C)csc1NC(=O)C1C2CCC(O2)C1C(=O)O (configuration not stated) | inactive
20 | COc1ccc(C(=O)C[n+]2ccccc2C)cc1 | inconclusive [inhibitor, partial curve, poor fit]
21 | O=C(Nc1ccc(Oc2ccccc2)nc1)C1CCCCN1Cc1ccco1 (configuration not stated) | inactive
22 | CC(=O)Nc1ccc2c(c1)ncn2C | inactive
23 | Cc1cccc2cc(CN(Cc3cccs3)C(=S)NCc3ccco3)c(=O)[nH]c12 | inconclusive [inhibitor, single point]

Row | Structure (SMILES) | Potency
24 | CCOc1ccccc1C1C(C(=O)OC)=CN(C)C=C1C(=O)OC | inconclusive [inhibitor, single point]
25 | COc1cc(/C=N/NS(=O)(=O)c2ccc(C)c([N+](=O)[O-])c2)ccc1O | inactive
26 | CSCC[C@@H](C(=O)NCCCCCCCCCCC(=O)N1CCNCC1)n1cc(CCO)nn1 | inconclusive [inhibitor, single point]
27 | C[C@@]12CCC=C[C@H]1[C@H](c1ccc3ccccc3c1)N(Cc1ccccc1)C2=O | inconclusive [inhibitor, single point]
28 | CC(NC(=O)C1CCN(C(=O)[C@@H]2Cc3ccccc3CN2C(=O)OC(C)(C)C)CC1)c1ccccc1 (some centres not stated) | inconclusive [inhibitor, single point]
29 | Oc1ccc(-c2nc(-c3ccc(O)c(O)c3)cs2)cc1 | inconclusive [inhibitor, single point]
30 | Cc1cccc(NC(=O)c2ccc([N+](=O)[O-])s2)n1 | inconclusive [inhibitor, partial curve]
31 | O=C1N(C2CCCC2)C[C@@H]2C[C@@H](c3cccn3-c3nccs3)N3CCC[C@@]123 | inconclusive [inhibitor, partial curve, poor fit]
32 | Oc1ccc(C[C@H]2CNCCN2CC2(c3ccccc3)CC2)cc1 | inconclusive [inhibitor, single point]
33 | Nc1ccc(-n2nncc2-c2ccco2)cc1 | inconclusive [inhibitor, single point]
34 | NNc1nc(-c2ccccc2)cc(-c2ccccc2O)n1 | inconclusive [inhibitor, partial curve, poor fit]
35 | CC(Sc1nc2ccccc2n1C)C(=O)NC(c1ccccc1)c1ccccc1 (configuration not stated) | active: 9.28 µM
36 | CCN(CC(=O)Nc1ccc2c(c1)OCCO2)C(=O)CSCC(=O)Nc1ccc(C)cc1 | inconclusive [inhibitor, single point]
37 | COc1cc(/C=C(/C#N)c2nc3ccccc3[nH]2)ccc1Oc1ncccc1[N+](=O)[O-] | active: 14.7 µM
38 | CCOC(=O)C1(CCCc2ccccc2)CCN(Cc2ccn[nH]2)CC1 | inconclusive [inhibitor, single point]
39 | Cc1cc(C(=O)OCC(=O)Nc2ccccc2Cl)c(C)o1 | inconclusive [inhibitor, single point]
40 | COc1ccc(-n2cnc3scc(-c4ccc(OC)c(OC)c4)c3c2=O)cc1 | inconclusive [inhibitor, single point]
41 | CCN(CC)C(=O)Cn1cc(S(=O)(=O)CC(=O)NCc2ccc(F)cc2)c2ccccc21 | inconclusive [inhibitor, partial curve]
42 | COc1ccc(-c2cc3nc(C)n(N)c(=O)c3s2)cc1 | inactive
43 | O=C(N/N=C/c1ccc([N+](=O)[O-])o1)c1cc(-c2ccncc2)nc2ccccc12 | inconclusive [inhibitor, full curve, poor fit]
44 | C[C@H](NC(=O)[C@@H]1CSC2c3ccccc3C(=O)N21)C(=O)NCc1c(F)cccc1Cl (some centres not stated) | inconclusive [inhibitor, single point]
45 | COc1ccccc1N1CCN(C(=O)CSc2nc(-c3ccco3)cc(C(F)(F)F)n2)CC1 | inconclusive [inhibitor, single point]
46 | Cc1cc(C)n2nc(SCC(=O)N(CCC#N)c3ccccc3F)nc2n1 | inconclusive [inhibitor, single point]

Row | Structure (SMILES) | Potency
47 | CCOc1ccccc1NC(=O)Cn1nnc(C(=O)NCc2ccc3c(c2)OCO3)c1N | inconclusive [inhibitor, single point]
48 | CCCC(=O)Nc1sc2c(c1C(=O)Nc1ccccn1)CCCC2 | inconclusive [inhibitor, full curve, poor fit]
49 | COc1ccc(C(=O)COC(=O)CCc2ccccc2)cc1 | inactive
50 | COc1ccc(NC(=O)CSc2nnc(Cc3cccn3C)n2-c2ccc(OC)cc2)cc1 | inconclusive [inhibitor, partial curve, poor fit]
51 | O=C(NCc1ccccc1Cl)C1=CC=CN2CCS(=O)(=O)N=C12 | inactive
52 | Cc1ccccc1NC(=O)Cn1nnc(-c2ccc(CN3CCC(C)CC3)cc2)n1 | inconclusive [inhibitor, single point]
53 | Cc1ccc(S(=O)(=O)N2CCOCC2)cc1C(=O)OCC(=O)NC1CC1 | inactive
54 | COc1ccc(CCn2c(C)cc(C(=O)CCl)c2C)cc1OC | inconclusive [inhibitor, partial curve]
55 | CCOC(=O)N1CCC(NCCNC(=O)c2ccccc2Cl)CC1 | inactive
56 | Cc1cccc(NC(=O)c2cc(-c3cc(C)ccc3O)n[nH]2)c1 | inconclusive [inhibitor, full curve, poor fit]
57 | O=C(COc1ccccc1[N+](=O)[O-])Nc1cccc(C(=O)Nc2ccccc2C(=O)O)c1 | inactive
58 | Cc1oc2c(c1C(=O)c1ccccc1)C(=O)C(=O)c1ccccc1-2 | active: 9.28 µM
59 | CC1(C)Cc2c(cnn2-c2cccc(F)c2)C(NC(=O)CN2CCCC2=O)C1 (configuration not stated) | inactive
60 | CN(/N=C/Cc1nnnn1-c1ccc(Cl)cc1)c1ccccc1 | inconclusive [inhibitor, single point]
61 | COc1cc(OC)cc(-c2c(-c3cccs3)c3cc(-c4cnc(OC)nc4)ccc3n2C)c1 | active: 1.85 µM
62 | CNc1nc(Cl)c(SC)c(NC2CCCCC2)n1 | inconclusive [inhibitor, partial curve, poor fit]
63 | COc1ccccc1-c1n[nH]c(=S)n1Cc1ccco1 | inactive
64 | COc1ccccc1C/C(N)=N/OC(=O)c1cccc([N+](=O)[O-])c1C | active: 9.28 µM
65 | COc1ccc(C)cc1NC(=O)CCN1CCN(C/C=C/c2ccccc2)CC1 | inconclusive [inhibitor, partial curve, poor fit]
66 | O=C(NCCC1CCCCN1S(=O)(=O)c1cccs1)C(=O)Nc1cccc(F)c1 (configuration not stated) | inconclusive [inhibitor, single point]
67 | CCCCOCCCN1CC(=O)N2C(C)c3[nH]c4ccccc4c3C[C@H]2C1=O (some centres not stated) | inconclusive [inhibitor, single point]
